Values marked as one replicate rest on one cluster of the flow cell; about a third of the high ones do not repeat.
Tested on: ATP
Test: switch fluorescence ratio, 500 uM ATP over buffer (Cy3 cluster intensity, sum of 5 cycles each) (fold (ratio)); higher = stronger signal-on switching upon ATP binding; sequences stand for … in TCGTCGGCAGCGTCAGATGTGTATAAGAGACAGTTTTTTTTTTTTTTTTTTTTTTTTT…TC
Conditions: aptamer strand: ATP DNA aptamer (quencher-CACCTGGGGGAGTATTGCGGAGGAAGG + anchor), 100 nM annealed; ATP concentration: 500 uM; one replicate
How it was run: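 Cy3-labelled switching-strand clusters on a modified Illumina MiSeq flow-cell were annealed to 100 nM quencher-labelled ATP aptamer and imaged first in selection buffer, then after 15 min with 500 uM ATP at 22 °C. NaOH stripping and re-annealing separated each of five buffer/ATP cycles, and clusters outside 100-1000 RFU were excluded. The fluorescence ratio sums target-cycle Cy3 intensity over buffer-cycle Cy3 intensity per cluster and averages it per switch-domain sequence.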
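Note: ATP exposure 15 min at 22 °C before imaging.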

Row | Sequence | switch fluorescence ratio
1 | GCCCACTTAA | 1.03
2 | GCCCAGTTGT | 1.77
3 | GCCCCCACAA | 1.18
4 | GCCCCCTT | 1.03
5 | GCCCCGAGGA | 1.07
6 | GCCCCGCCAA | 1.1
7 | GCCCCGGCCT | 1.15
8 | GCCCCGTAGA | 1.09
9 | GCCCCTGGGC | 1
10 | GCCCGAGCCC | 1.11
11 | GCCCGCTTTC | 1.95
12 | GCCCGGGCGG | 0.961
13 | GCCCGGGGGC | 1.05
14 | GCCCGGGGTC | 1.02
15 | GCCCGTAATA | 5.32
16 | GCCCTCTACT | 1.01
17 | GCCCTGACTT | 1.08
18 | GCCCTTAATG | 0.987
19 | GCCCTTCGGT | 1.02
20 | GCCCTTCTAC | 1.02
21 | GCCCTTTCGC | 1.02
22 | GCCGAAGGTC | 0.95
23 | GCCGAGCGTC | 1.06
24 | GCCGATCGGA | 1.02
25 | GCCGATTGTG | 1.03

Row | Sequence | switch fluorescence ratio
26 | GCCGCACTAG | 6.12
27 | GCCGCCACTA | 1.05
28 | GCCGCGCGAC | 1.26
29 | GCCGCTCGGA | 1.05
30 | GCCGCTCTGA | 1.04
31 | GCCGCTTCCG | 1.01
32 | GCCGCTTGCG | 0.982
33 | GCCGGATGA | 1
34 | GCCGGCGTCA | 0.972
35 | GCCGGGAAGC | 1.07
36 | GCCGGGATAA | 1.24
37 | GCCGGGCAGG | 0.994
38 | GCCGGGCATA | 1.09
39 | GCCGGGGTGG | 1.07
40 | GCCGGTTCGC | 1.06
41 | GCCGTCATCG | 1.02
42 | GCCGTTGCAA | 1.14
43 | GCCGTTTTGT | 1.01
44 | GCCTAACTGG | 0.955
45 | GCCTACCTG | 0.985
46 | GCCTACTACG | 1.1
47 | GCCTAGCGGT | 1.01
48 | GCCTATCCGA | 1.17
49 | GCCTATGACC | 0.999
50 | GCCTATTGTA | 0.973

Row | Sequence | switch fluorescence ratio
51 | GCCTCAGAGC | 1.04
52 | GCCTCTTATG | 1.01
53 | GCCTGACCGA | 1.3
54 | GCCTGAGA | 0.978
55 | GCCTGAGCAA | 1.24
56 | GCCTGTCATG | 0.952
57 | GCCTGTCCGA | 1.05
58 | GCCTGTGTAG | 0.961
59 | GCCTTAAGGA | 1.01
60 | GCCTTATCC | 1.08
61 | GCCTTCTTCT | 1.01
62 | GCCTTGCCAC | 1.09
63 | GCCTTGGAGT | 0.989
64 | GCCTTTAGTA | 1.05
65 | GCGAAAATGA | 1.02
66 | GCGAAACCTT | 1.35
67 | GCGAAACTGG | 0.98
68 | GCGAACGCTT | 1.12
69 | GCGAAGTATG | 0.964
70 | GCGAATCTCT | 1.04
71 | GCGAATGAG | 0.95
72 | GCGACGCCGC | 1.53
73 | GCGACTAGTG | 0.955
74 | GCGACTG | 0.996
75 | GCGACTGTGT | 1.04

Row | Sequence | switch fluorescence ratio
76 | GCGAGAAGGA | 1.05
77 | GCGAGAAGGT | 0.976
78 | GCGAGCACGC | 1.02
79 | GCGAGCCCGC | 0.978
80 | GCGAGTGCAA | 1.19
81 | GCGAGTGTG | 0.996
82 | GCGAGTGTTA | 0.99
83 | GCGAGTTGCT | 1.02
84 | GCGAGTTTTA | 0.98
85 | GCGATACTTG | 2.13
86 | GCGATAGTCG | 1.08
87 | GCGATCTGTG | 1
88 | GCGATGCCCG | 0.921
89 | GCGATGCGGT | 1.23
90 | GCGATGCTCG | 1.15
91 | GCGATGTAGC | 1.07
92 | GCGATGTCCC | 1.3
93 | GCGATGTCGG | 1
94 | GCGATTAGCA | 0.947
95 | GCGATTAGCT | 1.04
96 | GCGATTCGTG | 0.962
97 | GCGATTTACA | 1.07
98 | GCGATTTCTG | 1.03
99 | GCGCAAGGAT | 1.04
100 | GCGCACCATG | 0.973

Source: the supplement of paper PMC10126150
